In PubChem BioAssay AID1347417 (National Center for Advancing Translational Sciences (NCATS), 2020):
About 5,300 (4.4%) of roughly 120,000 compounds were called active. Inconclusive means that the source gave no clear call. Such entries were picked first, then a sample of the others. The call rests on the fitted dose curve; in most records, active means well fitted inhibition curve with a large enough effect; inconclusive means small, poorly fitted or top-dose-only effect; inactive means no such curve, though single readings can be large or run the other way. Where the call is inconclusive, the potency comes from a doubtful curve fit.
Potency means the concentration at half of the fitted maximal effect; tags describe the fitted curve by direction and shape.

Assay: qHTS Primary assay for Inhibitors of Plasmodium falciparum Dd2 growth in vitro; further: nearly all actives have a fitted effect of over 65% in size
Settings: P. falciparum Dd2 growth, SYBR Green, 72 h; series mostly up to 28.9 µM
In short: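 Readout: SYBR Green fluorescence, 485 nm excitation, 535 nm emission, after ~16 h lysis at 37C. Before that, Dd2-infected red cells (2.5% hematocrit) grew 72 h with compound, 29 uM top final concentration.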
In the case of `Cc1ccc(C(=O)Nc2nc3n(n2)C(c2ccc(F)cc2)C=C(c2ccccc2)N3)cc1` (configuration not stated), the Potency is reported as active: 6.31 µM.
With `CCC(C)NC(=O)N1CC(c2nc(CCOCC3CCOCC3)no2)C1` (configuration not stated) the Potency was inconclusive: 0.224 µM [inhibitor, full curve].
In the case of `COc1ccc(Nc2nccc3c(=O)cc(-c4ccccn4)oc23)cc1OC`, the Potency is reported as “inactive”.
With `CCCCNc1nc2c(c(=O)n(C)c(=O)n2C)n1CC(O)COc1ccccc1C` (configuration not stated) the Potency was inconclusive: 17.8 µM [inhibitor, single point].
With `COc1cccc(N2C(=O)NC(=NC3CCCCC3)C23CCCN([S+](=O)([O-])c2ccccc2)C3)c1` (configuration not stated) the Potency was inconclusive: 10 µM [inhibitor, single point].
For `Cc1nc(-c2ccccc2)n(CC(=O)NCc2ccc(F)cc2)c(=O)c1CCO`, the Potency was inconclusive: 17.8 µM [inhibitor, single point].
In the case of `COc1ccc(CNC(=O)Nc2cccc(-c3ccc(N4CCOCC4)nn3)c2)cc1`, the Potency is reported as inconclusive: 20 µM [inhibitor, single point].
In the case of `Cc1nc(C)c(C(=O)N2CCCN(Cc3ccncc3)C(c3ccccc3)CC(=O)NCC2)s1` (configuration not stated), the Potency is reported as inconclusive: 11.2 µM [inhibitor, single point].
In the case of `CCCN(CCC)CC(O)Cn1cc(/C=C/C(=O)c2ccc(C)cc2)c2ccccc21` (configuration not stated), the Potency is reported as active: 1.12 µM.
With `O=C(NCc1ccccc1F)c1ccc2c(c1)CN(Cc1cncs1)CCO2` the Potency was “inactive”.
For `COC(=O)c1ccc2nc(CO[C@H]3CN(C4CCOCC4)C[C@H]3F)[nH]c2c1`, the Potency was “inactive”.
With `CCCC1c2nccn2CCCN1C(=O)Cc1c(C)noc1C` (configuration not stated) the Potency was “inactive”.
With `Cc1ncoc1C(=O)N1CCC(c2noc(-c3ccccc3)n2)C1` (configuration not stated) the outcome was “inactive [at 5.79 µM]”.
In the case of `COc1ccc(F)c(CN2CCCC(O)(CN3CCC(CCO)CC3)C2=O)c1` (configuration not stated), the Potency is reported as inconclusive: 12.6 µM [inhibitor, single point].
For `CN(C)S(=O)(=O)c1ccc2c(c1)N(CC(=O)Nc1ccc(OC(F)(F)F)cc1)C(=O)CS2`, the Potency was inconclusive: 10 µM [inhibitor, single point].
In the case of `O=C(c1ccc(C(F)(F)F)cc1)N1CCC2(C1)C(=NC1CCCCC1)NC(=O)N2c1cc(F)cc(F)c1` (configuration not stated), the Potency is reported as active: 8.91 µM.
With `NCCC1CN(Cc2cc3ccccc3s2)CCO1` (configuration not stated) the Potency was “inactive”.
With `COc1ccc(C(=O)N2CCN(C(=O)c3nnn4c3COC(c3ccc(F)cc3)C4)CC2)cc1F` (configuration not stated) the Potency was “inactive”.
For `CCCS(=O)(=O)NC[C@H]1C[C@@H]2CCN1C[C@@H]2CC`, the Potency was inconclusive: 39.8 µM [inhibitor, single point].
In the case of `O=C(c1cc(-c2ccccc2F)cc2c1OCCN2Cc1cccnc1)N1CC(O)C1`, the Potency is reported as inconclusive: 4.47 µM [inhibitor, partial curve, poor fit].
With `O=C(O)c1ccc(-c2ncc3cnc(-c4cccc(F)c4)cn23)cc1` the Potency was “inactive”.
For `O=C(CC1=C2CCCCC2NC1=O)NCC1CCN(Cc2cccc(F)c2)CC1` (configuration not stated), the Potency was inconclusive: 17.8 µM [inhibitor, single point].
With `CN(CC(=O)O)c1ncc(CN2CCCC(c3cccc(C(=O)O)c3)C2)cn1` (configuration not stated) the Potency was “inactive”.
For `Cn1cc(CN2CCCC(COc3ccccc3C(=O)N3CCCCC3)C2)c2ccccc21` (configuration not stated), the Potency was inconclusive: 12.6 µM [inhibitor, partial curve, poor fit].
With `CC(C)Oc1cccc(-c2ccc(C(=O)N(C)C)cc2)c1` the Potency was inconclusive: 11.2 µM [inhibitor, single point].
In the case of `Fc1ccc(CNc2ncnc3onc(-c4ccc(F)cc4)c23)cc1`, the Potency is reported as inconclusive: 11.2 µM [inhibitor, partial curve, poor fit].
For `CCc1c(CN2CCN(c3cccc(C)c3C)CC2)csc1C`, the Potency was inconclusive: 17.8 µM [inhibitor, single point].
In the case of `CCC(CC)c1cc([C@H]2CN3CC[C@H]2C[C@@H]3CNC(=O)Nc2cccc(C#N)c2)nc(-c2ccncc2)n1`, the Potency is reported as inconclusive: 3.16 µM [inhibitor, single point].
In the case of `CCN(CC)S(=O)(=O)c1nnc(NC(=O)COc2ccccc2F)s1`, the Potency is reported as inconclusive: 20 µM [inhibitor, single point].
In the case of `NC(=O)C1CCN(C(=O)c2cccc(NC(=O)c3nsc4ccccc34)c2)CC1`, the Potency is reported as inconclusive: 10 µM [inhibitor, partial curve, poor fit].
For `O=C1CC(c2ccccc2)N(C(=O)CNC(=O)c2ccc3ccccc3n2)CCCCCN1` (configuration not stated), the Potency was inconclusive: 5.01 µM [inhibitor, partial curve, poor fit].
In the case of `Cn1cc(C(=O)NCC2CN(Cc3ccccc3)CC23CN(c2ccccc2)C3)cn1` (configuration not stated), the Potency is reported as “inactive”.
With `CN(Cc1cccn1C)C(=O)C1CC1` the Potency was inconclusive: 1 µM [inhibitor, partial curve].
With `CSC1=NC2(CCN(C(=O)NC3CCCCC3)CC2)N=C1c1ccc(C)cc1` the Potency was inconclusive: 17.8 µM [inhibitor, single point].
For `O=c1n(-c2ccc(C(F)(F)F)cc2)nc2n1CCN(Cc1cccnc1)C2`, the Potency was inconclusive: 11.2 µM [inhibitor, single point].
With `Brc1ccc(-c2nc3ccccn3c2Nc2ccc3c(c2)OCCO3)o1` the Potency was active: 12.6 µM.
With `CCCCN(CC)C(=O)CSc1nc2n[nH]c(C)c2c(=N)n1-c1cccc(OC)c1` the Potency was inconclusive: 20 µM [inhibitor, single point].
With `CCOc1c(CN(C)C(=O)Cn2cccc(OC)c2=O)cccc1OC` the Potency was “inactive”.
In the case of `C#C[C@H]1CN2CC[C@H]1C[C@@H]2CNCc1ccc(N(C)C)cc1`, the Potency is reported as “inactive”.
With `Cc1cccnc1CN1CCN(c2ncncn2)CC1` the Potency was “inactive”.
For `O=S1(=O)NC2(CCCN(Cc3ccc(Cl)cc3)C2)COc2ccccc21` (configuration not stated), the Potency was inconclusive: 17.8 µM [inhibitor, single point].
For `CCCNC(=O)C1CCC(Cn2c(=O)c3sccc3n(Cc3ccccc3F)c2=O)CC1` (configuration not stated), the Potency was inconclusive: 5.62 µM [inhibitor, partial curve].
With `COc1cccc(CN2CCCn3nc(C)c(-c4cnccc4C)c32)c1` the Potency was “inactive”.
In the case of `CCOC(=O)N1CCN(Cc2nc3cc(NC(=O)c4ccccc4[N+](=O)[O-])ccc3n2C(C)C)CC1`, the Potency is reported as inconclusive: 17.8 µM [inhibitor, single point].
With `CN(C)CCNC(=O)c1nc2nc(-c3ccccc3)c(-c3cccc(CO)c3)cc2n1C` the Potency was inconclusive: 31.6 µM [inhibitor, single point].
In the case of `Cc1ccc(-c2noc([C@@H]3Cc4nc[nH]c4CN3C(=O)NC3CCCCC3)n2)cc1`, the Potency is reported as inconclusive: 31.6 µM [inhibitor, single point].
With `CN(C[C@H]1CN2CC[C@H]1C[C@@H]2CNC(=O)c1ccccc1)c1ccccc1` the Potency was inconclusive: 3.16 µM [inhibitor, single point].
In the case of `COC(=O)[C@@H]1Cc2c([nH]c3ccccc23)[C@H]2C[C@H](N3CCCCC3)C[C@@H](c3ccccc3F)N21`, the Potency is reported as active: 1.41 µM.
In the case of `O=C(O)CCCC(=O)N1Cc2ccccc2CC2(CCCCN2Cc2ccncc2)C1` (configuration not stated), the Potency is reported as “inactive”.
With `Fc1ccc(-c2cnc3n2C[C@H](CNC2CCCC2)OC3)cc1` the Potency was inconclusive: 10 µM [inhibitor, partial curve, poor fit].
With `Cc1ccc2oc(-c3ccc(C)c(NC(=O)c4ccc(N5CCC(C)CC5)c([N+](=O)[O-])c4)c3)nc2c1` the Potency was “inactive”.
With `CC(=O)NC1(C)CCCN(Cc2cc(-c3ccccc3)cs2)C1` (configuration not stated) the Potency was inconclusive: 15.8 µM [inhibitor, single point].
In the case of `O=C(CC1CCS(=O)(=O)C1)N1CCCC(c2ccccc2)(c2ccccc2)C1` (configuration not stated), the Potency is reported as “inactive”.
With `CN(CC1(O)CCCN(Cc2ccc(F)cc2)C1=O)C1CCOCC1` (configuration not stated) the Potency was “inactive”.
With `COc1ccc(N2C(=O)CSC23CCN(C(=O)Nc2ccc(C)cc2)CC3)cc1` the Potency was inconclusive: 2 µM [inhibitor, full curve, poor fit].
For `Cc1ccc(S(=O)(=O)N(Cc2nc(-c3cccc(C)c3)no2)C2CCCCC2)cc1`, the Potency was inconclusive: 17.8 µM [inhibitor, single point].
For `CC(=O)N1CCN(Cc2ccc(-c3cnc4c(OCc5ccccc5)nccn34)cc2)CC1`, the Potency was inconclusive: 0.398 µM [inhibitor, full curve, poor fit].
For `CCN1CCN(C(=O)c2cnn(-c3cccc(Cl)c3)c2C2CCN(C(=O)OC(C)(C)C)CC2)CC1`, the Potency was inconclusive: 20 µM [inhibitor, single point].
With `CC(C)CNC(=O)C1CCc2sc(C(=O)N3CCCCC3)cc2C1` (configuration not stated) the Potency was inconclusive: 5.01 µM [inhibitor, partial curve].
In the case of `CN(C)C[C@@H]1CN(S(C)(=O)=O)C[C@H]1NC(=O)c1ccsc1`, the Potency is reported as “inactive”.
In the case of `c1ccc2oc([C@H]3CCN(C4CCOCC4)C3)nc2c1`, the Potency is reported as “inactive”.
In the case of `COC(=O)c1c(SC)nc2ccccc2c1OCc1ccc(Cl)cc1`, the Potency is reported as inconclusive: 11.2 µM [inhibitor, partial curve, poor fit].
For `Clc1ccc2c(c1)NC(c1ccncc1)=NC(c1cccs1)=N2`, the Potency was inconclusive: 10 µM [inhibitor, single point].
With `Cc1ccc(C(=O)N2CCCC(c3nn(-c4ccc(Cl)cc4)c(=O)[nH]3)C2)cc1` (configuration not stated) the Potency was “inactive”.
In the case of `COc1ccc2c(c1)CCc1c(C(=O)Nc3c(C)nn(Cc4ccccc4C)c3C)noc1-2`, the Potency is reported as inconclusive: 10 µM [inhibitor, single point].
With `CCc1ccccc1Nc1nn2c(=O)c3ccc(C(=O)NCc4ccccc4OC)cc3nc2s1` the Potency was inconclusive: 17.8 µM [inhibitor, single point].
With `COc1ccccc1Cn1cc(C(=O)c2ccc(C)cc2)c(=O)c2cc(C)ccc21` the Potency was inconclusive: 0.794 µM [inhibitor, full curve, poor fit].
